Reference: the supplement of paper PMC3334620
The full ranking holds about 33,000 sequences; the median of “E-score (-0.5 to 0.5)” is about -0.035, and the highest 2% start at about 0.34. The list shows a part of the results.

biological target: T1, Mot3 (UniProt P54785); experiment: PBM E-score (8-mer binding enrichment) (E-score (-0.5 to 0.5)); higher = stronger / more preferred TF binding; most listed sequences are background and not binding sites; conditions: protein concentration: 200 nM; construct: GST-full length
T1 sequence: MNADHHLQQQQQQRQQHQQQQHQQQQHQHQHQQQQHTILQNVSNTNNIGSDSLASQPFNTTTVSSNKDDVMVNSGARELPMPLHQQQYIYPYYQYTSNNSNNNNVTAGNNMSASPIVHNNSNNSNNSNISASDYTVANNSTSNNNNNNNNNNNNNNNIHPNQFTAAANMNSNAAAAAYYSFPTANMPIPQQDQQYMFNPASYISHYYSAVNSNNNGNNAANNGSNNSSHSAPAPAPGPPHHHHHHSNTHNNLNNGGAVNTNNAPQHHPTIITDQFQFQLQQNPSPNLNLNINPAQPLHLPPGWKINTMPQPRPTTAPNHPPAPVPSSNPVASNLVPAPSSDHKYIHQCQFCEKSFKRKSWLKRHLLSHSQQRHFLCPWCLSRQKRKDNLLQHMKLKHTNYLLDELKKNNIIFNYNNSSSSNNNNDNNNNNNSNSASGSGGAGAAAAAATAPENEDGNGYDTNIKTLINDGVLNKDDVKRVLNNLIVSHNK
Method in brief: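 Each ungapped eight-base word and its reverse complement, pooled, received an E-score from the Universal PBM Analysis Suite. Underlying scans, normalised with masliner, recorded fluorescent anti-GST bound to GST-tagged yeast transcription factors. These were applied at about 100-200 nM to universal all-10-mer Agilent arrays double-stranded by primer extension.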

Sequence	PBM E-score
ACCTAGGT	0.124
CCCGCACG	-0.204
CCGCTGAC	-0.283
AGTGAAAA	0.0385
CAGATATC	-0.0408
ACAAAGTC	0.146
ACGGTGCC	0.343
ACTAGACT	-0.302
AGTGTCAA	-0.0255
CGGGACCG	-0.297
GAATCACC	-0.0847
GTATCGCA	-0.129
CCGCCTGA	-0.217
ATGAGCAT	0.0104
ACTGGTCT	-0.0925
CGCAGTTA	-0.0494
AATAAGCC	-0.215
AGCGATGA	-0.0295
ATGAGAAA	0.0957
TAAGACGA	0.125
CAGGTTTA	0.0132
AACTACTA	0.106
GCGTCAGA	-0.0838
GCCGATTA	-0.0449
ACATCACA	0.182

Sequence	PBM E-score
CCTACTAC	0.0289
CCAGGCCC	-0.101
ATTGCCCC	-0.176
ATCCCAAA	-0.183
TCAATCGA	-0.00745
AGACGCCT	0.0148
CATTAGGG	-0.0155
AAAGTAGT	0.132
GATTACCA	0.034
ACGTAGTG	0.0413
AGAAACAG	0.128
CAGAGTGG	-0.165
AGGCCAGG	-0.0356
CTAATATA	0.179
AAGACGCC	-0.225
ATCAAAAG	-0.134
ATGAGTAC	0.075
CCTAGGTC	-0.251
AACTTTTA	0.204
CCTCGTAC	0.00505
TAACTGGA	-0.17
GCCGTGCA	-0.0598
GGCCTACC	-0.0921
CTGACAAG	0.111
GGAACCCC	-0.0529

Sequence	PBM E-score
CTGTCAAG	-0.0561
GCTTTACC	0.214
CCTCAAAA	-0.0394
ACAAGTAG	0.0555
AACTCTAC	-0.0496
CAACCAAA	-0.0417
AGGGAGAA	-0.141
CCACTACA	0.127
CCTCTTAA	0.0272
CATTGCTA	0.0475
AAGGTCTG	-0.0775
ATTTCGCA	0.0809
CCAATTCG	0.0916
AGTAAGCC	-0.0435
CTCACATC	-0.0901
CCCAAAGG	-0.0392
AGATAAGC	-0.0282
CGTAAGTA	0.165
AGTAAAGC	0.0727
TCCTTTCA	0.044
CCTGAGAC	-0.0172
ACGATCGG	-0.0926
CGCCGTTC	-0.0008
AGGGACCC	-0.368
GAGCTACA	0.0235

Sequence	PBM E-score
CATATATA	0.23
AGACAATG	0.058
AACAGGAC	0.19
AACCGCCG	-0.0916
AACCGTTA	0.0683
GACCCATA	-0.107
GATAATGA	-0.0692
AAATGCGC	0.0418
GTGCAATA	0.161
CATCGTAA	0.175
ACTCTATA	0.036
GGTCATCA	-0.158
ACTCACGC	-0.0749
AGGTGTCC	0.173
AAGAAAGT	0.0197
CAAGTTCG	0.0704
AGAGATCA	-0.211
CTGTAATC	0.111
ATCGAAAT	-0.0873
ACGGAACT	-0.186
CAAGATGA	0.0463
TAACGGGA	-0.0233
ACCCAAGG	7e-05
TATCAGCA	-0.0377
ATCGACTA	-0.0691

Sequence	PBM E-score
CGGACGAC	-0.152
ATATGTAA	0.346
ATAATGGG	-0.105
CAAGATAA	0.128
AGACCAGC	-0.28
ACTCCGTA	-0.323
ACGGTTCC	0.0364
GACCGCAC	-0.238
TGGCACCA	0.044
CTTATCGC	-0.156
AGCGCGAT	-0.0166
ATTGTGGG	-0.142
GCAGTCCA	-0.197
ATCTGGGC	-0.253
ATTCTGCA	-0.0758
GCTCCGAC	-0.0792
ACCTAAAG	0.027
GTCAAGAC	-0.0412
CCAAACCG	-0.218
ATGCGCCA	-0.028
AGACGTTC	-0.008
CATGGTTC	0.101
ATTGAGGC	0.0776
CTTGTGAC	-0.0252
CCATACCA	-0.07

Sequence	PBM E-score
ATGGACCG	-0.129
ACGCACCT	0.129
AATATGGA	0.0185
ATACAGCC	-0.0474
CACCCCGC	-0.277
ACTTGGCC	-0.213
GGTCTTAC	-0.136
CAGGTTCC	0.271
AGCTCAGA	-0.181
CCGCTTGC	-0.193
AACTGGAA	-0.043
CGCCTTCA	0.109
GAGGAACC	0.255
AGTGTGTG	0.051
CATCAATC	-0.0534
CTTTCTAC	0.182
CAGTGCGG	-0.235
CACTCAAA	0.107
CGGGCAGA	-0.00558
AGAAGACG	-0.0931
GAACAACA	0.236
ATTACATA	0.406
AGATTACT	0.101
CTAAACTC	0.0609
TCATTACA	0.359

Sequence	PBM E-score
AGATACCT	-0.096
CTAGAAAG	-0.108
GCGGTGTA	0.162
AACGTGTA	0.415
AAAGACGG	-0.233
CGACTTTA	0.101
TGAATGAA	0.0868
GGGCAATA	-0.132
ATATCAGC	-0.144
AACGAAGT	0.0591
GACGGCGA	-0.167
ACATTCCG	-0.0576
AAGCGAAA	0.0942
ATGATGAC	-0.179
AATCAAAG	-0.0608
ACCGTGGC	-0.206
AATTAAAG	0.158
AGTCTATA	-0.0584
CAGGGCTA	-0.157
AACACATG	0.269
CTCAGCAA	0.02
AGTTAAAG	0.178
CCACTGTC	-0.302
AAGTGCGA	-0.183
GCGTTTAA	0.291

Sequence	PBM E-score
CCGCCTTC	-0.226
CCCGAAGG	-0.0155
TGCTAGCA	0.0937
GCACACTA	0.0688
CGCTTCTA	-0.0173
AGAACGCG	0.0275
CCAGGAAA	0.324
CGCGCGAA	0.0179
CCTTCCTA	-0.00801
ACCATCTG	-0.338
GGACGGAA	-0.268
ACAAGATA	0.269
CGCCAACG	-0.175
AGCCCCCG	-0.384
GGTTGCCA	-0.198
GCAGCGAC	-0.0367
CCAGTAAG	-0.00718
GCGCAGCA	-0.264
GCTCCTAC	-0.0277
ATGACTAC	0.0213
CTAAGCGA	-0.338
GGTACGGA	0.0472
ACTGCGAA	-0.201
AGGGTAGA	-0.302
AGCTAGGC	0.0872

Sequence	PBM E-score
ACGTCCCA	0.0421
CATGTCGC	0.175
AGCGTAAG	0.0361
CAGCCTAG	-0.159
AGGACCAG	-0.26
ATCACGAG	-0.25
AAGCAAAT	0.19
ACGCTTTG	-0.111
GCTATCCC	-0.238
CTGGTAAA	0.0855
ATCGTTGC	0.154
ATTGAACG	0.0874
CCCTTCTA	-0.152
ACTGGCGC	0.057
ACTCTGAT	-0.0437
CGCGGACG	-0.204
GGCACAGA	0.308
AGCCGCCT	-0.374
TAACGTCA	0.0634
CTGGGGCA	-0.31
AGAACCCC	-0.104
GTAAACGA	0.218
GTGACTGA	0.257
AACCGGCC	-0.301
GCGAGAAA	-0.0294

Sequence	PBM E-score
CCAATGCA	-0.119
AGAGAAAC	0.151
AAGGCGCA	0.336
AGGTGAAT	-0.0328
ACATCCAG	0.142
CACGACGG	0.0919
CCGAAAGG	-0.151
CGATAGCC	-0.0599
CCACCTCG	-0.213
ACTGCCTA	0.199
AAAAGTAA	0.176
CTCGTATA	-0.027
CCTGTTCG	0.202
TGTATGAA	0.143
GGGATTCA	-0.0918
AACTTCAT	-0.0537
GAGGGGCA	-0.0867
GAGTAACC	-0.0468
GGAAGGTA	0.251
CAATAGGC	0.293
AGTGCTAT	-0.267
CAATGAGG	-0.197
GGGGGGAA	-0.375
GAAAGATC	-0.149
CTGTATGC	-0.087

Sequence	PBM E-score
GGCCGCTA	-0.284
ACAACCCG	-0.034
AAAACGCA	0.0022
ACAGAATG	-0.0363
ACATTTGC	0.232
AGCAAGTA	0.139
ACCTGATG	-0.0734
AATGGACC	-0.0323
ATAGTATC	-0.0486
AGGGTTAA	0.108
CTGAGGAA	-0.118
GGTCTTGA	0.0193
CTGCTATC	-0.114
AAAGCCAG	0.159
AATTCGGG	-0.189
ACACAAGC	0.257
TGACTTAA	0.0679
CATCCTAA	-0.0163
AAATTCAA	-0.058
CGAATCCC	-0.156
ACACTACT	0.1
CAGCCAGG	-0.121
ACGCCATA	0.149
CCTCTAGC	-0.0539
CCGCATGA	-0.167

Sequence	PBM E-score
CCCCGTCC	-0.281
AAGCCGCG	-0.049
GAGAATAC	0.0636
CATGACAA	0.107
TCTTGAAA	-0.0342
CTAGGCCA	-0.208
AACACGTG	0.302
GGTCTTAA	-0.141
ACTGCCAG	-0.224
CTTTGTAC	0.193
ATACCCAT	0.142
CAGCTGCG	-0.158
CATGCAAA	0.228
CATCTCAG	-0.0394
ACGACACC	0.011
AAGGGCGG	-0.156
CGTACACG	0.226
AGCACTCA	-0.226
CATCATCA	-0.0891
GACATTTA	0.106
ACGCGGAA	0.0232
AACCACCG	-0.266
CTATCGAA	-0.0709
GTACTTCA	0.198
ACCGTAGA	-0.0608

Sequence	PBM E-score
AGATGCGG	-0.116
GGCCAAAA	-0.129
CCAACCTA	-0.218
CATAACAC	0.316
CACCATAG	-0.145
GATAACCC	-0.0827
ATTGTCCC	0.0214
CGGTCTGC	-0.24
AATTCCAT	0.103
CGACGAAA	0.0822
GACTTGGA	-0.174
AACGCAGG	0.21
CCGGTATC	-0.235
CGTTGGAC	-0.128
AAAGAAGA	0.107
ACGGTGGC	-0.302
ACGATGAA	0.0724
CAAATGGC	-0.0819
ACCCGGTG	-0.292
GATCTTAC	0.0228
GATATTAA	-0.0488
AGCGAGCG	0.00409
CTTCAAGA	0.0893
GACACGTC	0.145
AGGCGGAC	-0.319

Sequence	PBM E-score
AGTTACGA	0.138
CGACATGC	0.279
AGCCCTCC	-0.29
CGAGGCGA	-0.211
AATACACG	0.394
AACTTTAG	0.081
AAGCTCAA	0.00274
CTCTCTTC	-0.152
GCTGAAGC	-0.272
AGACTGAC	-0.135
CTTGCCTA	0.488
AGTAATTG	0.182
GTTAAGGA	0.248
ACTGGGCT	-0.206
ATTGCCTA	0.482
CGCGTCCC	-0.205
CACCGGCA	-0.145
CTGCGTCA	-0.1
AGTTCGTC	-0.0522
